Where a name gives a salt, the structure may show the parent alone. ± gives the standard deviation of the averaged measurements. The full ranking holds about 2,600 compounds; the median of “total cell number (DAPI+ nuclei) relative to DMSO vehicle control” is about -1.4, and the lowest 2% start at about -23. This is one part of the list.
These compounds were tested on jimpy (Plp1 jimpy) mouse iPSC-derived oligodendrocyte progenitor cells (assay: total cell number (DAPI+ nuclei) relative to DMSO vehicle control (SDs above negative control mean); higher = more surviving cells). Details: 10 µM; 3 days.

In order of falling total cell number:
1. O=C(Nc1cccnc1)N1CCC(Cc2cccc(Oc3ccc(C(F)(F)F)cn3)c2)CC1 [PF 3845 hydrate]  2.55
2. OCC(CO)N[C@H]1C[C@](O)(CO)[C@@H](O)[C@H](O)[C@H]1O [Voglibose]  2.41
3. CCOC(CN1CCN(CC(C)C(=O)c2ccccc2)CC1)c1ccccc1 (stereo unspecified) [Eprazinone 2HCl]  1.16
4. O=C(O)c1ccc(C=C2SC(=S)N(c3cccc(C(F)(F)F)c3)C2=O)cc1  0.711
5. OC[C@@H](O)CN1CCN(c2ccccc2)CC1 [Levodropropizine]  0.711
6. O=C(Nc1cccnc1)N1CCC(Cc2cccc(Oc3ccc(C(F)(F)F)cn3)c2)CC1  0.69
7. O=C(Nc1ccccc1)N1CCN(c2nc(-c3ccccc3)ns2)CC1  0.543
8. O=C1NC(c2cccc([N+](=O)[O-])c2)=CCN1c1ccccc1O [Icilin]  0.524
9. Cc1cccc(-c2nn3c(c2-c2ccnc4ccc(C(N)=O)cc24)CCC3)n1  0.511
10. Cc1c(Nc2ncccc2C(=O)O)cccc1C(F)(F)F [Flunixin Meglumin]  0.511
11. CCCCCCCCOc1ccccc1C(=O)Nc1ccc(C(=O)OCC[N+](C)(CC)CC)cc1 [Otilonium Bromide]  0.445
12. CC(CNC(=O)c1cccnc1)NC(=O)c1cccnc1 (stereo unspecified) [Nicaraven]  0.325
13. CCC[C@@H]1C[C@@H](C(=O)N[C@@H]([C@H]2O[C@H](SC)[C@H](O)[C@@H](O)[C@H]2O)[C@@H](C)O)N(C)C1 [Lincomycin HCl]  0.306
14. Cc1ccc(Sc2cncc3sc(C(N)=O)cc23)cc1  0.0291
15. CCCCc1ncc(/C=C(\Cc2cccs2)C(=O)O)n1Cc1ccc(C(=O)O)cc1 [Eprosartan mesylate]  0.0143
16. CN(C(=O)CCCOc1ccc2[nH]c(=O)ccc2c1)C1CCCCC1 [Cilostamide]  -0.169
17. Cc1ccc(S(=O)(=O)OCC(=O)Nc2ccc(C(=O)O)c(O)c2)cc1  -0.179
18. O=C(O)c1cc(=O)c2ccccc2[nH]1 [Kynurenic acid]  -0.249
19. CN1C(C(=O)Nc2ccccn2)=C(O)c2sc(Cl)cc2S1(=O)=O [Lornoxicam]  -0.33
20. CC12CC3CC(C)(C1)CC(N)(C3)C2 [Memantine HCl]  -0.545
21. N[C@@H](COP(=O)(O)O)C(=O)O [O-Phospho-L-serine]  -0.573
22. CCCCCC(O)CCCC(=O)O (stereo unspecified) [5-hydroxydecanoic acid sodium]  -0.644
23. O=c1cc[nH]c(=O)[nH]1 [Uracil]  -0.671
24. Cc1cccc(N(C)C(=S)Oc2ccc3ccccc3c2)c1 [Tolnaftate]  -0.723
25. N[C@@H](Cc1ccc(O)c(O)c1)C(=O)O [L-3,4-Dihydroxyphenylalanine]  -0.745
26. COc1ccc(Br)cc1S(=O)(=O)NC(=O)/C=C/c1ccccc1Cc1ccc2ccccc2c1  -0.819
27. C#C[C@]1(O)CC[C@H]2[C@@H]3CCC4=Cc5oncc5C[C@]4(C)[C@H]3CC[C@@]21C [Danazol]  -0.947
28. O=C(O)CCCN1CCC(O[C@@H](c2ccc(Cl)cc2)c2ccccn2)CC1 [Bepotastine Besilate]  -0.974
29. CCc1ccc(/C=C2/SC(=S)NC2=O)cc1  -1.05 ± 0.18
30. CC[C@H](c1ccc(O)cc1)[C@@H](CC)c1ccc(O)cc1 [Hexestrol]  -1.22
31. CCN1CCCC1CNC(=O)c1cc(S(N)(=O)=O)ccc1OC (single isomer, unassigned; (-)) [(-)-Sulpiride]  -1.34
32. O=C(O)c1cc2cc(F)ccc2[nH]1 [5-Fluoroindole-2-carboxylic acid]  -1.42
33. CC(C)NNC(=O)c1ccncc1 [Iproniazid phosphate]  -1.44
34. Cc1cc(C)nc(NS(=O)(=O)c2ccc(NC(=S)NC(=O)COc3ccc(Br)cc3Cl)cc2)n1  -1.47
35. NNC(=O)c1ccncc1 [Isoniazid]  -1.58
36. O=C(O)c1cccnc1 [Nicotinic Acid]  -1.62
37. C[C@H]1C[C@H]2[C@@H]3CCC4=CC(=O)C=C[C@]4(C)[C@H]3C(=O)C[C@]2(C)[C@@]1(O)C(=O)CO [Meprednisone]  -1.79
38. C=CCNc1ncnc2ccc(Br)cc12  -1.82
39. Cc1ccc(CNc2ncnc3ccc(-c4ccc(CO)o4)cc23)o1  -1.93
40. CCCCC(=O)N(Cc1ccc(-c2ccccc2-c2nnn[nH]2)cc1)[C@H](C(=O)O)C(C)C [Valsartan]  -2.01
41. CC12CC3CC(C)(C1)CC(N)(C3)C2 [Memantine hydrochloride]  -2.07
42. O=C(Nc1ccc([N+](=O)[O-])cc1Cl)c1cc(Cl)ccc1O [Niclosamide]  -2.42
43. N#CC1(c2ccc(NC(=O)c3cccnc3NCc3ccncc3)cc2)CCCC1 [Apatinib]  -2.57
44. O=c1[nH]c(=O)n([C@H]2C[C@H](O)[C@@H](CO)O2)cc1I [Idoxuridine]  -2.83
45. CN1CCN(C(=O)c2cc3cc(Cl)ccc3[nH]2)CC1  -2.98
46. Nc1ncnc2c1ncn2C1CCCC1 [9-cyclopentyladenine]  -3.32
47. CCOC(=O)N1c2ccc(C(F)(F)F)cc2[C@@H](N(Cc2cc(C(F)(F)F)cc(C(F)(F)F)c2)C(=O)OC)C[C@H]1CC [Torcetrapib]  -3.59
48. CO[C@H]1C[C@@H]2CC[C@@H](C)[C@@](O)(O2)C(=O)C(=O)N2CCCC[C@H]2C(=O)O[C@H]([C@H](C)C[C@@H]2CC[C@@H](OC(=O)C(C)(CO)CO)[C@H](OC)C2)CC(=O)[C@H](C)/C=C(\C)[C@@H](O)[C@@H](OC)C(=O)[C@H](C)C[C@H](C)/C=C/C=C/C=C/1C [Temsirolimus]  -3.63
49. CCCCc1ncc(/C=C(\Cc2cccs2)C(=O)O)n1Cc1ccc(C(=O)O)cc1 [Eprosartan Mesylate]  -3.92
50. COc1ccc(-c2ccc3cc(C(=O)O)ccc3c2)cc1C12CC3CC(CC(C3)C1)C2 [Adapalene]  -4.06
51. CN1CCN2c3ccccc3Cc3ccccc3C2C1 (stereo unspecified) [Mianserin hydrochloride]  -4.12
52. O=c1cc(N2CCOCC2)oc2c(-c3ccccc3)cccc12 [LY-294,002 hydrochloride]  -4.34
53. CO[C@H]1C[C@@H]2CC[C@@H](C)[C@@](O)(O2)C(=O)C(=O)N2CCCC[C@H]2C(=O)O[C@H]([C@H](C)C[C@@H]2CC[C@@H](OC(=O)C(C)(CO)CO)[C@H](OC)C2)CC(=O)[C@H](C)/C=C(\C)[C@@H](O)[C@@H](OC)C(=O)[C@H](C)C[C@H](C)/C=C/C=C/C=C/1C  -4.55
54. CC(C)c1nc(CN(C)C(=O)N[C@@H](CCN2CCOCC2)C(=O)N[C@H](CC[C@H](Cc2ccccc2)NC(=O)OCc2cncs2)Cc2ccccc2)cs1 [Cobicistat (GS-9350)]  -4.6
55. Cc1ccc(C(=O)Nc2cccc(C(F)(F)F)c2)cc1Nc1nc(-c2cccnc2)nc2c1cnn2C  -4.71
56. COc1cc(N)c(Cl)cc1C(=O)OCCN1CCCCC1  -5.05
57. N#Cc1c(Oc2ccc(F)c(NC(=O)Cc3cccc(C(F)(F)F)c3)c2)ccc2nc(NC(=O)C3CC3)sc12  -5.14
58. COc1ccc(-c2cc(=O)c3c(OC)c(OC)c(OC)c(OC)c3o2)cc1OC [Nobiletin]  -5.17
59. COc1ccc(-c2cc(=O)c3c(OC)c(OC)c(OC)c(OC)c3o2)cc1 [Tangeretin]  -5.79
60. Cc1ccc(Nc2nccc(N(C)c3ccc4c(C)n(C)nc4c3)n2)cc1S(N)(=O)=O [Pazopanib]  -6.24
61. Cc1c(C(=O)Nc2ccc(N3C[C@@H](C)O[C@@H](C)C3)nc2)cccc1-c1ccc(OC(F)(F)F)cc1 [LDE225 (NVP-LDE225,Erismodegib)]  -6.46
62. CN1c2ccccc2C(=O)N2CCc3c([nH]c4ccccc34)C21 (stereo in doubt) [Evodiamine]  -6.87
63. O=c1cc(N2CCOCC2)oc2c(-c3ccccc3)cccc12  -7.46
64. CCCN(CC1CC1)c1nc(C)nc(Nc2c(Cl)cc(Cl)cc2Cl)c1Cl  -8.76
65. Cc1cnc(NC(=O)Nc2cc(Br)c(C)cc2OC[C@@H]2CNCCO2)cn1  -9.83
66. CN1CCN2c3ccccc3Cc3ccccc3C2C1 (stereo unspecified) [Mianserin HCl]  -11.1
67. Nc1cc(C(F)(F)F)c(-c2cc(N3CCOCC3)nc(N3CCOCC3)n2)cn1 [BKM120 (NVP-BKM120, Buparlisib)]  -11.1
68. Cc1ccc(Nc2nccc(N(C)c3ccc4c(C)n(C)nc4c3)n2)cc1S(N)(=O)=O  -11.7
69. CCCCc1oc2ccccc2c1C(=O)c1cc(I)c(OCCN(CC)CC)c(I)c1 [Amiodarone hydrochloride]  -11.8
70. CN1CCN(c2ccc3nc(-c4c(N)c5c(F)cccc5[nH]c4=O)[nH]c3c2)CC1 [Dovitinib (TKI-258) Dilactic Acid]  -12.1
71. CCc1ccc(OCc2ccccc2C(=O)Nc2ccc3nc(C)cc(N)c3c2)cc1  -12.5
72. COc1cc(Nc2ncc3c(n2)-c2ccc(Cl)cc2C(c2c(F)cccc2OC)=NC3)ccc1C(=O)O [Alisertib (MLN8237)]  -12.8
73. O=C(Nc1ncc(SCCN2CCCC2)s1)[C@]1(c2ccc(S(=O)(=O)C3CC3)cc2)C[C@H]1C1CCCCC1  -14.4
74. CCCCc1oc2ccccc2c1C(=O)c1cc(I)c(OCCN(CC)CC)c(I)c1 [Amiodarone HCl]  -17.2
75. C=CCNC1=C2C[C@@H](C)C[C@H](OC)[C@H](O)[C@@H](C)/C=C(\C)[C@H](OC(N)=O)[C@@H](OC)/C=C\C=C(/C)C(=O)NC(=CC1=O)C2=O [17-AAG (Tanespimycin)]  -25
76. CN1CCN(c2ccc3nc(-c4c(N)c5c(F)cccc5[nH]c4=O)[nH]c3c2)CC1 [Dovitinib (TKI-258, CHIR-258)]  -25.7
